PubChem BioAssay AID686979 (National Center for Advancing Translational Sciences (NCATS), 2013)
Hit rate of the full screen: of about 420,000 compounds, about 50,000 (12%) were called active. The inconclusive results got no clear call from the source; some entries with a clear call stand among them for comparison. Calls come from the whole dose curve; as a rule, active = well fitted inhibition curve with a large enough effect; inconclusive = small, poorly fitted or top-dose-only effect; inactive = flat fitted curve, though single readings scatter. No potency is given beside an inconclusive call; the fits are too rough.

Test: qHTS for Inhibitors of human tyrosyl-DNA phosphodiesterase 1 (TDP1): qHTS in cells in presence of CPT; note: nearly all actives have a fitted effect of over 55% in size
Conditions: chicken DT40 Tdp1-/-;hTDP1 cells + 20 nM CPT, ATP luminescence, 48 h; activity change, negative = growth inhibition: at 46.2 µM (top of the series) unless noted
Method in brief: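 Chicken DT40 Tdp1-/- cells complemented with human TDP1, 400 cells/well, exposed to compounds plus 20 nM camptothecin for at least 48 h at 37 C; viability read as ATP content by CellTiter-Glo luminescence.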
% is set by controls: 0 for no effect and ±100 for the full control effect; potency is the fitted concentration of half-maximal effect; tags give direction and shape of the fitted curve.

SMILES | activity change, negative = growth inhibition | Potency
Cc1ccc(Cl)c(NC(=O)CN2C(=O)C(C)N(c3ccc(F)cc3)C2=O)c1Cl (stereo not given) | inactive: -28.4% | –
COCCn1nnnc1CN1CCN(C(=O)c2ccco2)CC1 | inactive: 0.483% | –
COc1cc(C(=O)NC(C)Cc2ccccn2)ccc1OC1CCN(C(C)=O)CC1 (stereo not given) | inactive: 3.62% | –
O=C(Nc1ccc(Cl)cc1F)c1ccc2c(c1)C(=O)N(Cc1ccncc1)C2=O | inactive: 0.136% | –
Cn1c(=O)[nH]c(=O)c2c1ncn2CCN1CCOCC1 | – | inconclusive [inhibitor, partial curve]
NC(Cc1ccccc1)C(O)(c1ccccc1)c1ccccc1 (stereo not given) | – | inconclusive [inhibitor, single point]
O=C(CCC(=O)N1CCN(c2ccccn2)CC1)c1cccs1 | – | inconclusive [inhibitor, full curve, poor fit]
CCOc1ccccc1N1CCN(c2nc3ccccc3nc2C(C#N)C(=O)OC)CC1 (stereo not given) | – | active: 23.1 µM
COc1ccccc1N1CCN(C(=O)COc2ccccc2C#N)CC1 | inconclusive: -34.3% [inhibitor] | –
CCOc1ccc(CNC(=O)c2ccc3c(c2)N(Cc2ccccc2)CCS3)cc1 | – | inconclusive [inhibitor, single point]
CC(=O)N1CCOc2ccc(S(=O)(=O)NCC3CCC(C(=O)Nc4ccc(C)cn4)CC3)cc21 (stereo not given) | – | active: 14.6 µM
N#CC1=C(S)N(c2ccc(F)cc2)C2(CCCCC2)NC1=O | – | inconclusive [inhibitor, single point]
COc1ccccc1NC(=O)c1nn(-c2ccccc2)ccc1=O | – | inconclusive [inhibitor, single point]
COc1ccccc1-c1nccc(Nc2ccc(F)cc2)n1 | – | active: 23.1 µM
O=C(COC(=O)c1ccc2ccccc2n1)Nc1ccccc1Br | inactive: 0.989% | –
CCC(C)c1ccc(NC(=S)N2CCCC2)cc1 (stereo not given) | – | active: 13 µM
COc1ccc(OC)c(C(C)NC(C)=O)c1 (stereo not given) | inactive: -6.45% | –
COC(=O)c1ccc2c(c1)N(Cc1cc(C)ccc1C)C(=O)c1ccccc1S2(=O)=O | – | inconclusive [inhibitor, single point]
O=C(/C=C/C=C/c1ccccc1)c1ccco1 | – | inconclusive [inhibitor, single point]
Cc1cc(NC(=O)c2cccnc2Cl)ccc1NC(=O)c1cc2ccccc2o1 | – | active: 9.2 µM
COc1cccc(C2CC(c3ccc(Br)cc3)=NN2C(=O)c2ccncc2)c1OC (stereo not given) | – | inconclusive [inhibitor, single point]
Cc1cccc(NC2(C(=O)O)CCCC2)c1 | inactive: 11.6% | –
CC(C)Nc1nnc(SCC(=O)Nc2ccc3c(c2)C(=O)c2ccccc2C3=O)s1 | – | inconclusive [inhibitor, single point]
CCOc1ccc(S(=O)(=O)N2CCC(n3c(C)nc4cccnc43)CC2)cc1 | – | active: 20.6 µM

SMILES | activity change, negative = growth inhibition | Potency
COc1ccc(OCc2cc(C(=O)NCC3CCCCO3)no2)c(Cl)c1 (stereo not given) | – | inconclusive [inhibitor, single point]
CC(=O)Nc1ccc2nc(SCCOc3ccccc3Cl)sc2c1 | – | inconclusive [inhibitor, single point]
CCOC(=O)c1c(C)[nH]c(C)c1S(=O)(=O)N(C)CC(=O)Nc1ccc(C)c(F)c1 | inactive: -16.4% | –
O=C1N(c2ccccc2)c2ccccc2[C@]12C[C@H](O)CO2 | inactive: 10.4% | –
COc1ccc(C2CC(c3cccs3)=NN2S(C)(=O)=O)cc1 (stereo not given) | inactive: 1.11% | –
O=C(Cn1c(=O)c2c(ncn2Cc2ccccc2)n(Cc2ccccc2)c1=O)N1CCCC1 | inconclusive: -30.1% [inhibitor] | –
C/C(=N/NC(=O)c1cc(-c2cccc([N+](=O)[O-])c2)n[nH]1)c1ccc(Cl)cc1 | – | inconclusive [inhibitor, single point]
COc1ccc([C@H]2CC(=O)C=C(c3ccc(CO)cc3)C2)cc1 | – | inconclusive [inhibitor, single point]
O=C1OCCN1C(=O)[C@H]1[C@H](c2ccc(F)cc2)C(c2cccc(Cl)c2)=NN1c1ccc(Br)cc1 | – | inconclusive [inhibitor, single point]
CN(C(=O)CSc1nc2ccccc2n1CC(=O)N(C)C1CCCCC1)c1ccc(F)cc1 | – | inconclusive [inhibitor, single point]
O=C(NCCC1=CCCCC1)c1ccc(-n2cncn2)c([N+](=O)[O-])c1 | inconclusive: -33.8% [inhibitor] | –
Cc1ccc(OCc2nc3ccccc3n2C(C)C(=O)Nc2c(C)cccc2C)cc1 (stereo not given) | – | inconclusive [inhibitor, partial curve, poor fit]
CCc1ccccc1NC(=O)c1ccc2c(c1)c(C)c(C)n2Cc1ccccc1 | – | inconclusive [inhibitor, single point]
Cc1cc(C)c(NC(=O)C2CCCN(C(=O)c3cnn(-c4ccccc4)c3-n3cccc3)C2)c(C)c1 (stereo not given) | – | inconclusive [inhibitor, single point]
COc1cc(C(CCN2CCOCC2)c2c(OC)cc(OC)c3c(C)cc(=O)oc23)cc(OC)c1OC (stereo not given) | – | inconclusive [inhibitor, single point]
COc1cccc(CNC(=O)N2CCN(c3ccccc3C)CC2)c1 | – | inconclusive [inhibitor, partial curve]
O=C(CC1SC(N2CCCC2)=NC1=O)Nc1ccc(C(=O)NCc2ccc(F)cc2)cc1 (stereo not given) | inactive: 31.3% | –
CSc1ncccc1C(=O)OCC(=O)NC12CC3CC(CC(C3)C1)C2 | – | inconclusive [inhibitor, single point]
CCOCCCNC(=S)N1CCN(c2nc(-c3ccc(F)cc3)cs2)CC1 | – | inconclusive [inhibitor, single point]
CCCOc1c(Cl)cc(C(=O)Nc2ccc3c(c2)OCO3)cc1OCC | – | inconclusive [inhibitor, single point]
Cn1c(=O)c2c(SCC(=O)N3CCCCC3)nc(-c3ccccc3F)nc2n(C)c1=O | inactive: -0.24% | –
CCN(CC)c1ncnc2c1ncn2[C@H]1CN(Cc2ccccc2)C[C@@H](COC(C)=O)O1 | – | inconclusive [inhibitor, partial curve]
CCc1ccc(S(=O)(=O)c2cn(Cc3ccc(OC)cc3)c3cc(OC)c(OC)cc3c2=O)cc1 | – | inconclusive [inhibitor, single point]
O=C(COc1ccc(Br)cc1)Nc1ccc(C(=O)OC2CCCCC2)cc1 | – | inconclusive [inhibitor, single point]

SMILES | activity change, negative = growth inhibition | Potency
COc1ccc(NS(=O)(=O)c2ccc(C(=O)N3CCC(C)CC3)cc2)cc1 | – | active: 23.1 µM
CCC(C)[C@H](NC(=O)N1CCn2c1nc1ccccc12)C(=O)NCc1ccc(OC)cc1 (stereo not given in full) | – | active: 20.6 µM
COc1cccc(C2=NN(C(=O)c3cccs3)C(O)(C(F)(F)F)C2)c1 (stereo not given) | – | inconclusive [inhibitor, single point]
CCC(C)(C(=O)NC1CCCC1)N(C(=O)CC1NC(=O)NC1=O)c1c(C)n(C)n(-c2ccccc2)c1=O (stereo not given) | inactive: 16.2% | –
CN(c1ccccc1)S(=O)(=O)c1cccc(NC(=O)Cc2ccc(Cl)cc2)c1 | – | inconclusive [inhibitor, single point]
O=C(Nc1ccc(C(=O)OC2CCCCC2)cc1)c1ccncc1 | – | inconclusive [inhibitor, single point]
CCn1ccnc1CNC(=O)c1ccc(OC2CCN(C(=O)COC)CC2)cc1 | inactive: 1.94% | –
CCc1ccc(CN2CCC(C(=O)Nc3cccc(-c4nnc(C)s4)c3)CC2)o1 | – | inconclusive [inhibitor, single point]
CCCCCc1nnc(NC(=O)c2ccc(N3CCCC3=O)cc2)s1 | – | inconclusive [inhibitor, single point]
C=CCn1c(Cc2ccc(OC(C)C)c(Cl)c2)nnc1SCC(N)=O | inactive: 5.73% | –
C=C(C)CSc1nc2sc3c(c2c(=O)n1C1CCCCC1)CCN(C)C3 | – | active: 5.8 µM
CCOc1ccc(NC(=O)Cn2c(=O)n(-c3ccccc3)c(=O)c3c4c(sc32)CCCC4)cc1 | – | inconclusive [inhibitor, single point]
O=C1CC(c2ccc(Br)cc2)c2c(ccc3ccccc23)N1 (stereo not given) | – | inconclusive [inhibitor, single point]
C#CCN(C(=O)c1ccc(OC2CCN(Cc3ccccn3)CC2)cc1)C1CCCCC1 | – | active: 16.4 µM
CCc1nc2nc(C)cc(Nc3ccc(F)c(Cl)c3)n2n1 | – | inconclusive [inhibitor, single point]
Cn1c(N)c(C(=O)COC(=O)CCC(=O)c2cccs2)c(=O)n(C)c1=O | inactive: -8.69% | –
Cc1ccc(CN2CCC(CNC(=O)Nc3cccc(C)c3C)C2)cc1 (stereo not given) | – | inconclusive [inhibitor, single point]
COc1ccc(C(=O)Nc2cc(OC)c(NC(=O)Nc3ccccc3)cc2OC)cc1 | – | inconclusive [inhibitor, single point]
CNC(=S)N(Cc1ccc2c(c1)OCO2)C1CC(=O)N(c2ccccc2)C1=O (stereo not given) | – | inconclusive [inhibitor, single point]
COc1ccccc1N1CCN(CCOc2c(OC)cccc2OC)CC1 | – | active: 18.4 µM
CSc1nnc(CSCc2ccc(Cl)cc2Cl)n1-c1ccccc1 | – | inconclusive [inhibitor, single point]
CN1CCN(NC(=O)c2ccc(Br)s2)CC1 | – | inconclusive [inhibitor, single point]
